Screen size: about 43,000 compounds; about 200 (0.47%) were called active. Inconclusive results (about 12%) are left out. The call rests on the fitted dose curve; in most records, active means well fitted cell-killing curve with a large enough effect; inconclusive means small, poorly fitted or top-dose-only effect, or effect the other way; inactive means flat fitted curve, though single readings scatter. Some of the results follow.
Test: Cell viability qHTS assay in S16 Pmp22-F2sN cells; further: nearly all actives have a fitted effect of over 65% in size
Settings: S16 Pmp22-F2sN Schwann cells (luciferase reporters placed in the Pmp22 gene) viability, CellTiter-Glo, 24 h; series mostly up to 57.5 µM; activity change, negative = cytotoxicity: at the top concentration
Method in brief: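 CellTiter-Glo counter-screen, qHTS, 1536-well. Cells: S16(c9) Pmp22-F2sN, 500-1,000/well in DMEM + 10% FBS. Cpd 23 nL pin transfer, 24 h, 37C/5% CO2. Read: luminescence, CCD imager.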
On the % scale 0 is the no-effect control and ±100 the full control effect.

| Structure (SMILES) | activity change, negative = cytotoxicity |
| --- | --- |
| CCSc1nc2sc3c(c2c(=O)n1-c1ccc(C)c(Cl)c1)CCN(C(C)=O)C3 | inactive: 27.9% |
| Cc1ccc(NC(=O)CSc2nccn2-c2ccccc2)cc1 | inactive: -12.3% |
| O=C(COc1ccccc1Cl)Nc1ccc2nc(SCC(=O)N3CCOCC3)sc2c1 | inactive: 3.77% |
| CCc1nccn1S(=O)(=O)c1cc(Br)ccc1Br | inactive: 0.25% |
| COc1ccc(C)cc1NC(=O)CN(C)S(=O)(=O)c1ccc2[nH]c(=O)oc2c1 | inactive: -6.16% |
| CCc1ccc(-c2[nH]nc3nc(-c4cc(OC)ccc4OC)cc(C(=O)O)c23)cc1 | inactive: -0.791% |
| COC(=O)c1sccc1S(=O)(=O)N(CC(=O)Nc1cc(F)ccc1F)c1ccc(C)c(C)c1 | inactive: -21.4% |
| Cc1ccccc1Cn1cc(S(=O)(=O)c2ccc(F)cc2)c(=O)c2cc3c(cc21)OCO3 | inactive: 23.8% |
| Cc1ccc(NC(=O)Cn2c(=O)n(CCCCC(=O)NCCc3ccccc3)c(=O)c3ccccc32)cc1 | inactive: 5.08% |
| Cc1cc(=O)n(Cc2ccc(Br)cc2F)c2c1c(C)nn2-c1ccccc1 | inactive: -1.11% |
| O=C(CCNS(=O)(=O)c1ccc2c(c1)CCCC(=O)N2)NCc1ccc(Cl)cc1 | inactive: -0.669% |
| Cc1cc(Cl)ccc1OCCSc1nnc(-c2cccs2)o1 | inactive: -19.6% |
| CCOc1ccc(NC(=O)N2CCN(C(=O)c3nsc4ccccc34)CC2)cc1 | inactive: -4.49% |
| Cc1cccc(NC(=O)c2ccc(Cn3nc(N4CCN(c5ccccc5)CC4)ccc3=O)o2)c1C | inactive: -23.1% |
| Cn1nc(C(=O)NCc2ccccc2Cl)c2c1-c1ccccc1SC2 | inactive: 28.8% |
| CCN(CC)c1nn2c(=O)c(C(=O)NCc3ccccc3Br)cnc2s1 | inactive: 3% |
| COc1ccc(CCNC(=O)c2ccc3c(c2)CCN3S(=O)(=O)c2ccc(C)cc2)cc1OC | inactive: -4.65% |
| CCC1CCCCN1C(=O)Cn1c(=O)n(-c2ccc(Cl)c(Cl)c2)c(=O)c2c(C)c(C(=O)N(C)C)sc21 (stereo not given) | inactive: 0.533% |
| CC(C)OCCCn1c(SCc2ccccc2Cl)nc2c(sc3ccccc32)c1=O | inactive: -0.442% |
| CCOc1ccc(NC(=O)CSc2cn(CC(=O)N3CCOCC3)c3ccccc23)cc1 | inactive: 12.2% |
| CCC1CN(C(=O)N2CCC(C(=O)NCCC3=CCCCC3)CC2)c2ccccc2O1 (stereo not given) | inactive: -0.669% |
| CCC(Cc1ccccc1)NC(=O)c1cccc(Nc2nc3ccccc3nc2-n2nc(C)cc2C)c1 (stereo not given) | inactive: -0.0968% |
| CC(=O)Nc1c(C)nn(-c2ccccc2)c1N1CCC(C(=O)NCc2cccc(F)c2)CC1 | inactive: -1.44% |
| CCN(c1cc(C)cc(C)c1)S(=O)(=O)c1nnc(NC(=O)c2ccccc2C)s1 | inactive: -0.612% |

| Structure (SMILES) | activity change, negative = cytotoxicity |
| --- | --- |
| COc1ccc(CCNC(=O)c2cc(=O)[nH]c3ccc(S(=O)(=O)N4CCCCC4)cc23)cc1OC | inactive: 11.1% |
| CN(C)c1ccc(C(=O)NCc2ccc3c(c2)CCN3C(=O)c2ccc(Cl)cc2)cc1 | inactive: 1.29% |
| COc1ccc(Cl)cc1NC(=O)CCn1nc(C)cc1C | inactive: -3.24% |
| Clc1ccc(CNc2ncnc3onc(-c4ccc(Cl)cc4)c23)cc1 | inactive: -17.4% |
| CCc1cccc(C)c1NC(=O)c1cc(S(=O)(=O)N2CCN(c3ccccc3)CC2)ccc1F | inactive: 0.249% |
| COc1ccc(OC)c(CNc2ncnc3onc(C)c23)c1 | inactive: -17% |
| Cc1cccc(CCNC(=O)CCc2c(C)nc3c(c(C)nn3-c3ccccc3)c2C)c1 | inactive: 10.6% |
| COc1ccc2c(c1)CC(C(=O)Nc1cc(OC)c(OC)c(OC)c1)CO2 (stereo not given) | inactive: -3.44% |
| COc1cc(OC)cc(C(=O)Nc2cccc(-c3cn4ccsc4n3)c2)c1 | inactive: -6.76% |
| COc1ccc(C(=O)NCc2ccc3c(c2)CCN3C(=O)c2ccc(Cl)cc2)c(OC)c1 | inactive: -6.82% |
| COc1ccccc1NC(=O)C1=C(C)Nc2nc(-c3ccco3)nn2C1c1ccccc1 (stereo not given) | inactive: -0.0491% |
| COc1cccc(CNC(=O)c2ccc3c(c2)N(C)C(=O)C2CCCCN32)c1 (stereo not given) | inactive: -8.76% |
| COc1ccc(-c2nc(SCC(=O)Nc3ccc4c(c3)OCO4)c(-c3ccccc3)[nH]2)cc1 | inactive: -17.8% |
| CCc1ccc(NC(=O)C2CCC(CNS(=O)(=O)c3cccs3)CC2)cc1 (stereo not given) | inactive: 8.74% |
| CCOc1ccc(-c2cc3nc(C4CCN(C(=O)OC(C)(C)C)CC4)c(C(=O)Nc4ccc(C)c(F)c4)cn3n2)cc1 | inactive: 7.95% |
| CC(C)CCNC(=O)c1cn(C)c2ccc(S(=O)(=O)N3CCCC3)cc2c1=O | inactive: -6.35% |
| Cc1ccccc1OCc1cc(=O)n2c(-c3ccccc3)csc2n1 | inactive: -8.06% |
| CCC(=O)N1CCc2cc(Br)cc(S(=O)(=O)N3CCC(C(=O)N(CC)CC)CC3)c21 | inactive: -13.5% |
| CCn1cc(C(=O)N2CCN(c3cc(Cl)ccc3C)CC2)c(=O)c2cc(S(=O)(=O)N3CCOCC3)ccc21 | inactive: 0.461% |
| CC1CCN(c2cc3c(cc2F)c(=O)c(S(=O)(=O)c2ccc(Cl)cc2)cn3C)CC1 | inactive: 0.77% |
| COc1ccc(Nc2nc3c(S(=O)(=O)c4ccc(Br)cc4)nnn3c3ccsc23)c(OC)c1 | inactive: 2.38% |
| CCOC(=O)c1c(NC(=O)c2cc(-c3ccc(Cl)cc3)on2)sc2c1CCCC2 | inactive: 6.23% |
| Cc1ccc(CNc2oc(-c3ccc(COc4ccc(Cl)cc4)o3)nc2C#N)cc1 | inactive: -10.3% |
| Cc1ccc(-n2c3c(c(=O)[nH]c2=O)C(NS(=O)(=O)c2ccc(C)cc2)(C(F)(F)F)C(=O)N3)cc1 (stereo not given) | inactive: 3.86% |

| Structure (SMILES) | activity change, negative = cytotoxicity |
| --- | --- |
| CCOc1ccc(CN2C(=O)c3ccccc3Sc3ccc(C(=O)NCCc4ccccc4)cc32)cc1 | inactive: 22.3% |
| COc1ccc2[nH]cc(CCNC(=O)Nc3cccc(F)c3)c2c1 | inactive: -16.1% |
| Cc1cccc(NC(=O)CSC2=Nc3ccccc3C3=NC(CCC(=O)NCc4ccc(F)cc4)C(=O)N23)c1 (stereo not given) | inactive: -20.4% |
| CC(=O)c1ccc(NS(=O)(=O)c2cnc(N)nc2)cc1 | inactive: 12.3% |
| CC(=O)c1cccc(Nc2ncnc3c2cnn3C)c1 | inactive: -0.788% |
| CCOc1ccccc1NC(=O)Cc1csc(COc2cccc(C)c2)n1 | inactive: 10.7% |
| CC1CCN(S(=O)(=O)c2ccc(C(=O)Nc3nc4ccc(F)cc4s3)cc2)CC1 | inactive: 0.722% |
| COC(=O)c1c(NC(=O)COc2c(C)cccc2C)sc2c1CCCC2 | inactive: -3.78% |
| O=C(NCC(c1ccc2c(c1)OCO2)N1CCN(c2ccc(F)cc2)CC1)c1cccc([N+](=O)[O-])c1 (stereo not given) | inactive: -12.5% |
| Cc1ccc2onc(CNC(=O)Nc3ccccc3C#N)c2c1 | inactive: -3.84% |
| CCOc1ccc(C2C(C(=O)OC)=C(C)NC3=C2C(=O)c2ccccc23)cc1OC (stereo not given) | inactive: -10.1% |
| CCc1ccc(NC(=O)C2CCCN(c3nn4cc(-c5ccc(OC)cc5)nc4s3)C2)cc1 (stereo not given) | inactive: 0.955% |
| O=C(Nc1ccc(F)cc1Cl)C1CCN(c2ncnc3c2nc2n3CCCCC2)CC1 | inactive: -24.7% |
| CN(C1CCCCC1)S(=O)(=O)c1ccc2c(c1)c(=O)c(C(=O)NCc1ccccc1Cl)cn2C | inactive: 6.32% |
| COc1cccc(CNC(=O)CCc2c(C)nc3c(c2C)c(=O)n(C)c(=O)n3C)c1 | inactive: 6.98% |
| CCc1ccccc1NC(=O)CSc1ncccc1C(=O)O | inactive: 5.91% |
| COc1ccc(Nc2ncnc3c2c(-c2ccccc2)cn3-c2ccc(C)c(Cl)c2)cc1OC | inactive: 17.4% |
| COCCOC(=O)c1c(C)oc2c1cc(NS(=O)(=O)c1ccc(Cl)c(C)c1)c1ccccc12 | inactive: -28.5% |
| Cc1c(-c2cccc(NC(=O)c3ccc(F)c(F)c3)c2)nc2ncccn12 | inactive: -14.8% |
| Cc1nn(C)c2c1c(C(F)(F)F)cc(=O)n2C(C)C(=O)NCCc1ccc(Cl)cc1 (stereo not given) | inactive: 0.655% |
| CNS(=O)(=O)c1ccc(NC(=O)c2cnn3c(C(F)F)cc(-c4ccccc4)nc23)cc1 | inactive: -0.132% |
| CCOC(=O)c1cnc2c(Cl)c(Cl)ccc2c1NCCN1CCOCC1 | inactive: 3.01% |
| CCOC(=O)Cc1ccc(NC(=O)n2ncc3cc(Cl)ccc32)cc1 | inactive: -10.9% |
| Cc1ccc(Oc2coc3cc(OCC(=O)NC4CCCCC4)ccc3c2=O)cc1 | inactive: 21.4% |

| Structure (SMILES) | activity change, negative = cytotoxicity |
| --- | --- |
| N#Cc1ccc(C(=O)Nc2ccccc2-c2nc3ccccc3s2)c(F)c1 | inactive: 3.53% |
| COc1ccc(OCc2ccc(-c3nc(C#N)c(NCc4ccccc4)o3)o2)cc1 | inactive: -14.9% |
| COc1ccc2c(c1)CC(C(=O)Nc1cccc(C)c1C)CO2 (stereo not given) | inactive: 2.51% |
| CC(C)c1ccc(NC(=O)C2CCCN(S(=O)(=O)c3cccc4nsnc34)C2)cc1 (stereo not given) | inactive: -1.96% |
| COc1ccc(Cn2ccnc2SCC(=O)NC2CCCC2)cc1 | inactive: -1.21% |
| CC(CCc1ccccc1)NC(=O)Cn1c(=O)nc(-c2ccccc2F)c2cc(Cl)ccc21 (stereo not given) | inactive: 17.7% |
| Cc1oc(-c2ccccc2F)nc1CSCC(=O)NCc1ccccc1 | inactive: -1.7% |
| Cc1cccc(C)c1NC(=O)CSc1ncc2c(n1)-c1ccc(Cl)cc1N(Cc1ccccc1)S2(=O)=O | inactive: -25% |
| CCOC(=O)Cn1c(=O)n(C2CCCCC2)c2nc(-c3ccc(OCC)cc3)nc(C(N)=O)c21 | inactive: 20.2% |
| COc1ccc(C2CC(=O)c3cnc4c(-c5ccccc5)c(C)nn4c3C2)cc1OC (stereo not given) | inactive: -9.02% |
| O=C(CSc1nccn1-c1ccc(Cl)cc1)Nc1cccc2ccccc12 | inactive: -0.358% |
| COC(=O)c1ccc(NS(=O)(=O)c2c(C)nc3sccn3c2=O)cc1 | inactive: -2.28% |
| COc1cccc(-n2ccnc2SCC(=O)Nc2ccc(Cl)c(Cl)c2)c1 | inactive: 3.13% |
| O=c1c(=O)n(-c2ccccc2)ccn1Cc1cccc(C(F)(F)F)c1 | inactive: -5.2% |
| Cc1ccc(NC(=O)c2cc3nc(-c4ccc5c(c4)OCO5)cc(C(F)(F)F)n3n2)cc1Cl | inactive: 16.6% |
| O=C(NCc1ccc(F)cc1)c1ccc(CS(=O)Cc2ccc(Cl)cc2)o1 (stereo not given) | inactive: -1.31% |
| Oc1c(C(c2ccccc2)N2CCN(c3cccc(Cl)c3)CC2)sc2nc(-c3ccco3)nn12 (stereo not given) | inactive: -2.29% |
| Cc1c(C(=O)Nc2ccccc2Cl)sc2ncnc(N(C)C3CCCCC3)c12 | inactive: -0.423% |
| COc1cc(Cl)c(NC(=O)c2cc(CN3CCCC3)on2)c(OC)c1 | inactive: 18.1% |
| Cc1ccc(N2CC(c3nnc(Cc4ccc(F)cc4)o3)CC2=O)cc1 (stereo not given) | inactive: 7.22% |
| COc1ccccc1CNS(=O)(=O)c1cc(Br)cc2c1N(C(C)=O)C(C)C2 (stereo not given) | inactive: 7.43% |
| O=C1COc2ccc(-c3cc(-c4ccc(F)cc4)c4c(n3)-c3cc(Cl)ccc3OC4)cc2N1 | inactive: 12.7% |
| Cc1ccc(NC(=O)c2cccc(N3CCCS3(=O)=O)c2)cc1C | inactive: 6.35% |

Reference: PubChem BioAssay AID1508642 (National Center for Advancing Translational Sciences (NCATS), 2021)
